Laboratory results reported in the antibiotic and cytotoxicity screens of Wong et al. (2023).
This is one part of the list.

System: S. aureus RN4220
Assay: growth inhibition call (relative growth <= 0.2)
Conditions: 50 µM

Growth inhibition call, inactive:
Cc1noc(C)c1NC(=O)Nc1ccc2c(c1)C(=O)N([C@@H](C)CO)C[C@H](C)[C@@H](CN(C)Cc1ccc(Cl)c(Cl)c1)O2
C[C@@H]1CCCCO[C@@H](CN(C)C(=O)c2ccccc2)[C@H](C)CN([C@H](C)CO)C(=O)c2cc(NC(=O)Nc3ccc(C(F)(F)F)cc3)ccc2O1
C[C@H]1CN([C@@H](C)CO)C(=O)Cc2cc(NS(=O)(=O)c3ccc(Cl)cc3)ccc2O[C@H]1CN(C)S(=O)(=O)c1cn(C)cn1
C[C@H](CO)N1C[C@H](C)[C@@H](CN(C)S(=O)(=O)c2ccc(F)cc2)Oc2ccc(N(C)C)cc2CC1=O
C[C@@H]1CCCCO[C@@H](CN(C)Cc2ccc(C(=O)O)cc2)[C@H](C)CN([C@@H](C)CO)C(=O)c2cc(NS(=O)(=O)c3cccs3)ccc2O1
COc1ccc2nccc(Cl)c2c1
C[C@H](CO)N1C[C@H](C)[C@@H](CN(C)C(=O)NC2CCCCC2)Oc2ccc(NS(C)(=O)=O)cc2C1=O
I.[KH]
C[C@@H]1CN([C@H](C)CO)C(=O)Cc2cc(NC(=O)Nc3ccccc3)ccc2O[C@@H]1CN(C)Cc1ccc(Oc2ccccc2)cc1
C[C@H](CO)N1C[C@H](C)[C@H](CN(C)C(=O)Nc2cccc(Oc3ccccn3)c2)OCc2cn(nn2)CCCC1=O
CCCN(C)C[C@H]1Oc2cc(C#Cc3ccc(OC)cc3)ccc2S(=O)(=O)N([C@H](C)CO)C[C@H]1C
C=CCOC(=O)[C@H]1[C@@H]2C(=O)O[C@@H](c3ccccc3)[C@@H](c3ccccc3)N2[C@@H](c2ccc(OCCOC(=O)[C@@H]3C[C@@H]4C(=O)NCC(=O)N4[C@@H]3c3cccc(OCCO)c3)cc2)[C@]12C(=O)Nc1ccccc12
CCCn1ncnc1[C@@H](C)N
C[C@@H]1CN([C@H](C)CO)C(=O)c2cccc(NC(=O)Nc3ccc4c(c3)OCO4)c2O[C@H]1CN(C)Cc1ccc(C(F)(F)F)cc1
COc1ccc2c3c(n(c2c1)C)[C@H](CO)N(Cc1ccccc1)C[C@]13CCN(CC1)C(=O)c1ccccc1F
COCC(=O)Nc1ccc2c(c1)OC[C@@H](C)N(C(=O)c1ccccc1F)C[C@@H](C)[C@H](OC)CN(C)C2=O
C[C@H](CO)N1C[C@H](C)[C@H](CN(C)C(=O)Nc2cccc3ccccc23)Oc2ncc(C#Cc3ccc(F)cc3)cc2C1=O
C[C@H](O)C#Cc1ccc2c(c1)O[C@H](CN(C)C(=O)Cc1ccccn1)[C@H](C)CN([C@H](C)CO)S2(=O)=O
COCC#Cc1cnc2c(c1)C(=O)N([C@@H](C)CO)C[C@H](C)[C@@H](CN(C)S(=O)(=O)c1cccc(OC)c1)O2
Cc1noc(C)c1S(=O)(=O)Nc1cccc2c1O[C@@H](CN(C)Cc1ccc(-c3ccccc3)cc1)[C@@H](C)CN([C@H](C)CO)C2=O
CN(C)CC(=O)N[C@@H]1C=C[C@H](CC(=O)NCCN2CCCCC2)O[C@H]1CO
O=C(C[C@@H]1C[C@H]2c3cc(NS(=O)(=O)c4ccc(F)cc4)ccc3O[C@H]2[C@H](CO)O1)NCCc1ccccc1
Cc1noc(C)c1NC(=O)N(C)C[C@@H]1Oc2ccc(NC(=O)NC(C)C)cc2CC(=O)N([C@H](C)CO)C[C@@H]1C
C[C@@H](NC(=O)C[C@@H]1CC[C@@H](NC(=O)CN2CCOCC2)[C@H](CO)O1)c1ccccc1
COc1ccc(NC(=O)Nc2ccc3c(c2)C(=O)N([C@H](C)CO)C[C@H](C)[C@@H](CN(C)C(=O)Nc2cccc4ccccc24)O3)cc1
Cc1ccc(S(=O)(=O)N(C)C[C@@H]2Oc3c(NC(=O)Nc4ccc(C(F)(F)F)cc4)cccc3C(=O)N([C@@H](C)CO)C[C@H]2C)cc1
Cc1ccc(S(=O)(=O)Nc2ccc3c(c2)C(=O)N([C@@H](C)CO)C[C@H](C)[C@H](CN(C)C(=O)Cc2ccccc2)OCCCC[C@@H](C)O3)cc1
CCOC(=O)N1CCN(C[C@@H](O)Cn2c(=O)c3c(ncn3C)n(C)c2=O)CC1
C[C@@H]1CN([C@H](C)CO)C(=O)c2cc(NS(C)(=O)=O)ccc2O[C@H]1CN(C)C(=O)NC1CCCCC1
C[C@@H]1CCCCO[C@@H](CN(C)S(=O)(=O)c2ccc(Cl)cc2)[C@H](C)CN([C@H](C)CO)C(=O)c2cc(NC(=O)c3ccccc3)ccc2O1
CCCNC(=O)c1cc2c(c(-c3cccc(-c4cc5ccccc5o4)c3)n1)[C@@H](CCO)N(C(=O)NC(C)C)C2
CO[C@@H]1CN(C)C(=O)c2ccc(NC(=O)NC(C)C)cc2OC[C@@H](C)N(Cc2ccc(-c3ccccn3)cc2)C[C@H]1C
C[C@@H]1CN([C@H](C)CO)S(=O)(=O)c2ccc(C#CCN(C)C)cc2O[C@@H]1CN(C)Cc1ccccn1
C[C@@H]1CN([C@@H](C)CO)C(=O)c2cc(NC(=O)CCCCCC(=O)Nc3ccccc3N)ccc2O[C@H]1CN(C)S(=O)(=O)c1cn(C)cn1
COCC(=O)N1C[C@@H](C)[C@@H](OC)CN(C)C(=O)c2ccc(NC(=O)c3cc(C)on3)cc2OC[C@@H]1C
COc1ccc(NC(=O)N(C)C[C@@H]2OCCCC[C@@H](C)Oc3ccc(NS(=O)(=O)c4cccs4)cc3C(=O)N([C@H](C)CO)C[C@H]2C)cc1
CCCN(C)C[C@H]1OCCCC[C@@H](C)Oc2ccc(NC(=O)Nc3ccc4c(c3)OCO4)cc2C(=O)N([C@H](C)CO)C[C@@H]1C
CN(C)CC(=O)N1[C@@H]2c3ccc(C4=CCCC4)c(=O)n3C[C@H]1[C@H](CO)[C@H]2C(=O)NCC1CC1
Cc1ccc(S(=O)(=O)N(C)C[C@H]2Oc3c(NS(=O)(=O)c4cccs4)cccc3C(=O)N([C@H](C)CO)C[C@@H]2C)cc1
C[C@@H]1CCCCO[C@@H](CN(C)Cc2ccc(Cl)c(Cl)c2)[C@@H](C)CN([C@@H](C)CO)C(=O)c2cc(NS(=O)(=O)c3ccc(Cl)cc3)ccc2O1
